Measurements reported in the RNAGym collection of RNA variant scans (doi:10.1073/pnas.2313332121).
Variants at the floor of the assay are shown more often than the library holds them.

B1: TPR 5TU (parent)
chain: GGAUCUUCUCGAUCUAACAAAAAAGACAAAUCUGCCACAAAGCUUGAGAGCAUCUUCGGAUGCAGAGGCGGCAGCCUUCGGUGGCGCGAUAGCGCCAACGUUCUCAACUAUGACACGCAAAACGCGUGCUCCGUUGAAUGGAGUUUAUCAUG

Variants of: B1
Experiment: polymerase ribozyme fitness, log enrichment relative to wild type (log ratio); higher = more active; in vitro selection for triplet polymerase activity
Procedure, shortened: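 Frozen incubation at −7 °C formed the core of a single, triplicate in vitro selection round applied to PCR-built, transcribed mutant libraries of each subunit of a heterodimeric triplet polymerase ribozyme. Extended constructs were gel-excised, captured with streptavidin beads and amplified by RT-PCR, and input and output libraries were Illumina-sequenced with a filter of ≥10 input reads and ≥1 read per output. Fitness is the logarithm of genotype enrichment relative to wild-type enrichment, with inverse-variance-weighted replicate averaging, and the logarithm is base 2.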

Variant	polymerase ribozyme fitness (log ratio)
C8U A73U	-3.97
U9C U15G C93A	≤ -4.2
U9A C10G A16U A41C A52C C57U G58U C79U C85G A97U U134G G141C	≤ -4.2
C8A G59C G94C A113G	≤ -4.2
C8U A19U C63G G65C C93G A137C A142U	≤ -4.2
C8U G50A C75G A91G C114A	≤ -4.2
U9A G68A C85G A106G A137G A138U	≤ -4.2
U9G C87U	-4.11
C8U A22C C63U G70U U78C U82A	≤ -4.2
C10A A20U G50A A64U A142G U146C	≤ -4.2
U9G C14G A19U A21G A28U G70U C79G C93U C95A C96U C118G G133U	≤ -4.2
C10A A17U C36U C76U G84U U101A U104G C108U A121C	≤ -4.2
U9A U15A G48C C51G G84A	≤ -4.2
C8U U33G A49U C51A C76G G136A	≤ -4.2
U9C A19U A37C U90A C95A C129G	≤ -4.2
C8U C27U A39U G42C A66U G92C G141A	≤ -4.2
C8G A66U C72G C85G A115C	≤ -4.2
U9C G59U A60C G74C C131U	≤ -4.2
U9A A22U A39U C57A A73U G92A C93U A137U	≤ -4.2
U9G G50A	≤ -4.2
C8G A37G G71U U82C G83A U148C	≤ -4.2
U9C A16G U44G A49G A64G C105G G124A	≤ -4.2
C8G C43U U78A U90C G94A C108A U134A	≤ -4.2
C10A A20U G50U U55G G68U U90G A97U C99U A122C A142U	≤ -4.2

Variant	polymerase ribozyme fitness (log ratio)
U9A A47C G58C G71U C87U G124U G143A	≤ -4.2
U9G C118U C125A	≤ -4.2
C8G U33A C54U G92A C99A	≤ -4.2
C8G A24C G25C A30U U45A C79G G83U G126U U139G	≤ -4.2
U9A C14A A23U A30C C36A C95U A110U	≤ -4.2
C8G G11U C32G G86A A120C C125U U146G	≤ -4.2
C8G A17C C18G A41C A52U G83A G140U	≤ -4.2
C8G A26U C36U U61G C99U C149G	≤ -4.2
C8G A22C A24U C69U A73U C93U	≤ -4.2
C8U A21C G25U A97U	≤ -4.2
C8A U31G G62A C114A G124U U139G	≤ -4.2
U9G C85U G88C G117U A119U G141A	≤ -4.2
U9C C93A U134C U151A	≤ -4.2
U9G A66G A113U U146G	≤ -4.2
C8G C35U A106U A107C	≤ -4.2
U9G C54U U55A C85A C95A A98G A106U	≤ -4.2
U9C A17U A89G A122G	≤ -4.2
U9A A16G A66G G86U	≤ -4.2
C8G C35A C85A U90G A113C	≤ -4.2
U9G A24G G48C U53A A66C G67A G84U C96U A119G U134C	≤ -4.2
C10A A12U A41G C96A A107C C114A	≤ -4.2
U9G A19U G65A C105U A106U	≤ -4.2
C8G A28U C93U	≤ -4.2
U9C A39G A91U U102A U148A	≤ -4.2

Variant	polymerase ribozyme fitness (log ratio)
C8U A12G G80A C129G	≤ -4.2
U9G U77C C85A C108U A120C G141C	≤ -4.2
U9A G42A A47C C57U C96G A110U	≤ -4.2
U9A A28U C54A G59A A66U G86A	≤ -4.2
C8A G88U C99A	≤ -4.2
U9G U33G C85A C118A	≤ -4.2
U9C A49G A106G C116U G136A A137C G143A U144C U148G	≤ -4.2
C8U A23C U61G G74U C96A A98C G143U	≤ -4.2
C8G C93A C108G A115C G124U	≤ -4.2
U9A A21U A49U C87A C93U U104G U130A	≤ -4.2
C8U C38U G48A A60C C72G C96A C99U C114G U139G U148G	≤ -4.2
C8G A20U C54U G59A C87A A89C A91C	≤ -4.2
C8U C27G A40G U78G C85G A98C A150G	≤ -4.2
C8A G58C U82A A98G G136U	≤ -4.2
C8G A39G G74A C123U	≤ -4.2
C8G G25U A49C A66G A89U A91G	≤ -4.2
C8G U61G G81A C87U G92C A121G C132A U144A G152A	≤ -4.2
C8G A19U U56A G58A G68A U139C	≤ -4.2
U9A A26U G92U	≤ -4.2
C8A G58A A60C C63U C85G	≤ -4.2
C8A U53A G81C C85G C108U A138G A147G A150U G152U	-3.5
U9G C85A	-3.76
C8U C14U A26G G81U C85U C105G A113U	≤ -4.2
U9A U31G G58U A73U C123U U135A	≤ -4.2

Variant	polymerase ribozyme fitness (log ratio)
C8U A22U C27U G70A C85A A89U G92U	≤ -4.2
C8U C27U G92U U135A U144G U146G C149G	≤ -4.2
C8U G42C C51U U61G C95A C125G U127G A137U C149G	≤ -4.2
U9C U44A G81A C87G	≤ -4.2
U9A A49C A66G A120C	≤ -4.2
C8A C96G U104G A110U U127A	≤ -4.2
C8G C14A A39C G74U G143U	≤ -4.2
U9G U53A G86U C99G C105G U109C C118U U134A	≤ -4.2
U9G A17C C57U G86A	≤ -4.2
U9G C57G G84A C93U G124A U151G	≤ -4.2
U9G C51G G84A G141C	≤ -4.2
U9G A21C C35U C85G	≤ -4.2
C10A A20U G58C U61G G83A G84A G126U	≤ -4.2
C8G C93U	-3.64
C8G C38U C85G C87A U111A	≤ -4.2
C8U A19G U55A A91G C99U	≤ -4.2
U9C C27G A40G G50U C57U C72U C95U C99G U144G	≤ -4.2
U9G C10G C87G C93U G124C	≤ -4.2
C8U U13A G83A C99A G141A	≤ -4.2
U9A G59A A60C C93U	≤ -4.2
C8G C14A A30C C69U C76G A98U U144G	≤ -4.2
C8U U53G U55A A60U C75G G94C	≤ -4.2
C8A C93A	≤ -4.2
U9A C27U C75A	≤ -4.2

Variant	polymerase ribozyme fitness (log ratio)
C8U C123G	-3.42
C8U A40C A41G G50A U56A C93A	≤ -4.2
C8U A24U C32G G70A G83U A98C A150C	≤ -4.2
C8A G70C U134G	≤ -4.2
U9A U55G U78G G143C	≤ -4.2
C8G G86A C103U	≤ -4.2
C8G A64G	≤ -4.2
U9G C27G U31G U61G C75G G94A C105U	≤ -4.2
U9G A52G C72G C96U C105A A115G U127C G133U	≤ -4.2
C8G A30G C38U C85U G143C	≤ -4.2
C8U A29G A52G U56A U127G	≤ -4.2
U9G U53A	-3.81
C8U A12G G25C A52G U78A C93G	≤ -4.2
C10A A60U G94A G140A U144G	≤ -4.2
C8A G46A G50C	≤ -4.2
U9G U13G G25C C27G C76A	≤ -4.2
U9G C32U C57G C87A C96U C99U U144G	≤ -4.2
U9G U33G G59A G140U	≤ -4.2
U9C A40U C76A C93U G141A	≤ -4.2
C8G A23U A47G G86A C103G A115G C149U	≤ -4.2
C8G C14A A28G A64C G71C G92C C105G G126C A142G	≤ -4.2
U9G U13A A21C A41C U56G U90C C116G	≤ -4.2
C8G U33G U53G A60U A89U A106C	≤ -4.2
C8G C35U C85G G88U U134A	≤ -4.2

Variant	polymerase ribozyme fitness (log ratio)
C8G C14U A29U G50U C54U C75G A119U	≤ -4.2
C8U A41C U55A G68A G86A U90G A113G	≤ -4.2
U9A C27A C32G A40G U55A G83A G136C G141U G143U U148A	≤ -4.2
U9G U31G C57U C69G A89U G92U U101A A119G	≤ -4.2
U9C A28U G88U C95U	≤ -4.2
U9A C96U A110C	≤ -4.2
C8U C43U	≤ -4.2
C10A A20C C32A C93U C105U C123U C131G G141C	≤ -4.2
U9C U13G C18U A21U C38A U44G G68C G92U G94A G133U A142G U144C	≤ -4.2
U9A A20U C27A A28C G58C G59C	≤ -4.2
C10A A23U U44A G70A G88A C114G	≤ -4.2
U9G C14A C85U G141U	-4.19
C8G A16G A17U A20C A37C G59C U82G C87G A107G A110C U139G	≤ -4.2
C10A A12U C54A C85U A107G	≤ -4.2
C10A A66U C75A G94A	≤ -4.2
C8G C38G C69U G84U A98U G124U A137G	≤ -4.2
C8G G59U C87A C103G	≤ -4.2
U9A C85G	≤ -4.2
U9A U15G C27U G83A U102G	≤ -4.2
C8A G58C	-4.1
U9A A16G U44A G46C U90C A120G	≤ -4.2
C10A A26G G59U A66G C85U C118A G136U	≤ -4.2
C8U C14G U53A C63A C93U	≤ -4.2
U9A G50A G94U	≤ -4.2

Variant	polymerase ribozyme fitness (log ratio)
C8G G11A A52G A89U C93G	≤ -4.2
C8U A52C G68C	≤ -4.2
C8G C10U C54G A66U C75G G88A C93U C96A A142C	≤ -4.2
U9C G11U C35U U78G U130A A150C	≤ -4.2
C8G U13G A23G G48U C57A C87A G126C	≤ -4.2
C8U C18G C35A U53A G58C	≤ -4.2
C8U G83A	-2.94
C8A G50U	-3.79
U9C A16U G86U G140A U145G U148A	≤ -4.2
U9G U77C C85A U144A	≤ -4.2
U9C A28G G58C A91U G126A A142G	≤ -4.2
C8G C76A G92U C123A A150U	≤ -4.2
U9G A24G A30G C87G	≤ -4.2
C8A C87G G88A G143C U145C	≤ -4.2
C8U A41C G46C G71A G83U C116G	≤ -4.2
U9C A29G C87G	≤ -4.2
C8U A24C C35U G58C G59C U82G C95A	≤ -4.2
U9C A20C A41G G46C G50C G88U C95A G124U	≤ -4.2
U9G U31G C43U C72A C87U	≤ -4.2
C8G U13G C116G	-3.71
C8G U15G A21G G83U A91G C105U U144C U148A	≤ -4.2
C8U U13A C57U C95U G140C	≤ -4.2
U9G G34A A49C U56A C93A C95G G140C U146C	≤ -4.2
